Test results published in PubChem BioAssay AID360 (National Center for Advancing Translational Sciences (NCATS), 2006).
Screen size: about 48,000 compounds; about 550 (1.1%) were called active. Not shown: some 4% with an inconclusive outcome. No stated cut-off is given here; in the data, active means potency below about 15 µM; inconclusive means mostly about 16 µM to 33 µM; inactive means weaker than that. The list shows a part of the results.

target: Lysosomal acid glucosylceramidase (Homo sapiens) (UniProt P04062); experiment: Glucocerebrosidase; settings: purified enzyme, resorufin glucoside fluorescence (screen aimed at inhibitors), 20 min;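 further: the screen sought inhibitors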
Chain of UniProt P04062 (P04062 whole entry, looked up): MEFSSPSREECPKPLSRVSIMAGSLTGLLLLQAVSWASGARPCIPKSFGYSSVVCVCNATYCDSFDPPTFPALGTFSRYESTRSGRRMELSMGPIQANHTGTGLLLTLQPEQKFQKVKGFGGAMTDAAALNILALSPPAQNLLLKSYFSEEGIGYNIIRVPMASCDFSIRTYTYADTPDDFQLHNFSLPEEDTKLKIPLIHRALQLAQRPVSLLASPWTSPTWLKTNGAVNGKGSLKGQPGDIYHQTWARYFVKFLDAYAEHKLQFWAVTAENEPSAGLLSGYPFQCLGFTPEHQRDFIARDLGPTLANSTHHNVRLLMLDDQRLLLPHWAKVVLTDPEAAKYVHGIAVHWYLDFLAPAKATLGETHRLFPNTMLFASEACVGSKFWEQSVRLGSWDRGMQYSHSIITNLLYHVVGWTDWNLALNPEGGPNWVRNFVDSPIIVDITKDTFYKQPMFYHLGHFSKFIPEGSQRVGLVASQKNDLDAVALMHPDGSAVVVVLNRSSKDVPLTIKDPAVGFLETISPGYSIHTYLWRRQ
How it was run: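 Wild-type enzyme at 0.2 nM final in 50mM citric acid/KH2PO4, 10mM sodium taurocholate, 0.01% tween-20, pH 5.9, with resorufin beta-D-glucopyranoside at 30 uM final. Compounds titrated, 20 min at RT, red fluorescence read; AC50 from titration.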
Potency means the concentration at half of the fitted maximal effect.

Potency, inactive:
O=C(CSc1nc2ccc(S(=O)(=O)N3CCOCC3)cc2[nH]1)N1CCOCC1 > 76.9 µM
CN1C(=O)c2ccc(C(=O)NCc3ccccc3)cc2C1=O > 76.9 µM
Cc1ccc2[nH]c(=O)c(CN(CCO)C(=O)NCc3ccccc3)cc2c1 > 76.9 µM
Cc1cccc(NC(=O)CCCCCN2C(=O)c3ccccc3C2=O)n1 > 76.9 µM
Cc1nnc(NC(=O)Cc2ccc(OCc3c(C)noc3C)cc2)s1
Cn1c(C(=O)NCCCN2CCN(c3ccccc3F)CC2)cc2c(=O)[nH]c3ccccc3c21 > 76.9 µM
O=C(CSc1nnc(-c2cc3ccccc3cc2O)n1Cc1ccco1)c1ccc(F)cc1 > 76.9 µM
Cc1ncoc1C(=O)Nc1ccccc1C(N)=O > 76.9 µM
CN(c1ccc(C(=O)NCc2ccccc2)cc1)S(C)(=O)=O > 76.9 µM
CCCCS(=O)(=O)NC1=NCN(CC)CN1 > 76.9 µM
CCOc1cc2[nH]c(=O)n(CCCCC(=O)NC3CCCCC3)c(=O)c2cc1OCC > 76.9 µM
CCOC(=O)N1CCN(C(=O)C(CC(C)C)NC(=O)C2CCCCC2)CC1 (stereo not given) > 76.9 µM
COC(=O)c1cc(NC(=O)CN2C(=O)CSC2=O)ccc1Cl > 76.9 µM
CC1CCN(S(=O)(=O)c2cc(Cl)ccc2Br)CC1 > 76.9 µM
CN(Cc1ccccc1)C(=O)c1cc(-c2ccc(Br)cc2)on1 > 76.9 µM
O=C(CCc1nc2ccccc2c(=O)[nH]1)OCc1nnc(-c2ccccc2)o1 > 76.9 µM
Cc1cccc2c(=O)cc(C)n(CC(=O)N3CCOCC3)c12 > 76.9 µM
CCCNC(=O)C(NS(=O)(=O)c1cccc2nsnc12)c1ccccc1 (stereo not given) > 76.9 µM
CC(C#N)Sc1nc2ccccc2c(=O)n1-c1ccccc1 (stereo not given) > 76.9 µM
Cc1cc(C)nc(N2CCC(C(=O)NCc3cccc(C(F)(F)F)c3)CC2)n1 > 76.9 µM
Cc1occc1-c1nnc(SCC(=O)c2ccccc2)n1CC1CCCO1 (stereo not given) > 76.9 µM
Cc1cc(Cl)c(S(=O)(=O)Nc2ccc3c(c2)OCCO3)cc1OCC(N)=O > 76.9 µM
Cc1occc1C(=O)Nc1cccc(C(=O)NCc2ccccc2)c1 > 76.9 µM
CC(=O)c1cccc(NC(=O)NCc2cccs2)c1 > 76.9 µM
CCC(=O)Nc1ccc(NC(=O)c2cccc(OC)c2)nc1 > 76.9 µM
